# Experimental data published in PubChem BioAssay AID652154 (Broad Institute, 2013).
# Among all 360,000 compounds or so, about 4,200 (1.2%) were called active. The inconclusive results got no clear call from the source; some entries with a clear call stand among them for comparison.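 The calls were made as follows: active = mean replicate inhibition at least 60% with every replicate also reaching 60%; inconclusive = only one of the two criteria is met; inactive = mean below 60% and not all replicates reaching 60%.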
# Assay: inhibitors of PAX8-driven TPO luciferase reporter, primary screen, RMG-I cells, single concentration (AID 652154);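 also: luciferase light reporting Pax8 driven TPO promoter activity; plate controls were median of neutral control wells for no effect and mitoxantrone controls for full effect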
# Conditions: SteadyGlo, 24 h, at 12.6 µM, active compounds read high
row,Compound,inhibition
1,COc1ccc(-c2ccc3c(c2)[C@@H]2[C@@H](CCN2C(=O)Cc2ccccc2)[C@H](CO)N3C)cc1,inconclusive: 60%
2,CCCNC(=O)[C@@H]1[C@@H](CO)[C@@H]2Cn3c(ccc(C4=CCCC4)c3=O)[C@H]1N2CCC(F)(F)F,inactive: -21.3%
3,O=C(Cc1ccccc1)Nc1ncnc2c1C(c1ccccc1)c1c(ccc3ccccc13)O2 (stereo not drawn),inconclusive: 61.3%
4,CCN(CC)NC(=O)Nc1ccccc1,inactive: 13.6%
5,O=C1C(N2CCOCC2)=C(n2nnc3ccccc32)C(=O)c2ccccc21,active: 82.5%
6,COc1ccc(C(NC(=O)C2CCN(Cc3ccc(Oc4ccccc4)cc3)CC2)c2ccccc2C)cn1 (stereo not drawn),active: 63%
7,CCCCC[C@@H](C)N1C[C@H](COCc2ccccc2)Oc2cc(N3CC[C@H](N(C)C)C3)ccc2S1(=O)=O,inconclusive: 60.5%
8,COc1ccc(S(=O)(=O)Nc2ccc3c(c2)C(=O)N([C@H](C)CO)C[C@@H](C)[C@H](CN(C)S(=O)(=O)c2ccc(Cl)cc2)OCCCC[C@H](C)O3)cc1,active: 83.2%
9,C[C@@H]1CCCCO[C@@H](CN(C)C(=O)Nc2ccc(C(F)(F)F)cc2)[C@H](C)CN([C@H](C)CO)C(=O)c2cc(NC(=O)c3ccccc3)ccc2O1,inactive: -6.62%
10,CN(C)CC(=O)N[C@H]1CC[C@@H](CCn2cc(C3CC3)nn2)O[C@@H]1CO,inconclusive: 61.5%
11,Cc1ccc(C(NC(=O)N2CCCCC2)=C(Cl)Cl)cc1F,inconclusive: 62.3%
12,Cc1noc(C)c1S(=O)(=O)Nc1ccc2c(c1)C(=O)N([C@H](C)CO)C[C@@H](C)[C@H](CN(C)Cc1ccc(C(F)(F)F)cc1)OCCCC[C@@H](C)O2,inconclusive: 60%
13,COc1ccc([Si](C)(C)[C@@H]2[C@@H](CCn3cc([C@H](O)c4ccccc4)nn3)O[C@]3(C(=O)N(Cc4cccc(N5CCOC5=O)c4)c4ccccc43)[C@H]2C)cc1,inconclusive: 63.8%
14,O=C(Nc1ccn(CCCN(CCCn2ccc(NC(=O)OCc3ccccc3)nc2=O)CCc2cc3ccccc3[nH]2)c(=O)n1)OCc1ccccc1,inconclusive: 62.1%
15,Cc1ccc(-n2nnnc2Sc2ccc(S(=O)(=O)NCCN(C)C)cc2[N+](=O)[O-])cc1,inconclusive: 62.8%
16,C[C@H](CO)N1C[C@H](C)[C@@H](CN(C)Cc2ccc(C(F)(F)F)cc2)Oc2c(NC(=O)CCCCCC(=O)Nc3ccccc3N)cccc2C1=O,active: 68.9%
17,Cc1ccc(S(=O)(=O)Nc2ccc3c(c2)C(=O)N([C@H](C)CO)C[C@H](C)[C@H](CN(C)Cc2ccc(C(=O)O)cc2)O3)cc1,inactive: 3.77%
18,COc1ccc([C@H]2C[C@H](O)[C@@H](n3cc(-c4ccc(F)cc4)nn3)CN2Cc2cccs2)cc1,inconclusive: 60.1%
19,Cc1noc(C)c1COc1cccc(C(=O)Nc2ccccc2)c1,inactive: -11.3%
20,CCN(CC(=O)Nc1ccc(NC(C)=O)cc1)C(=O)C1CCN(C(=O)c2ccccc2C)CC1,inactive: 6.42%
21,COc1ccccc1S(=O)(=O)N(C)C[C@@H]1Oc2cc(C#CCC3CCCC3)ccc2S(=O)(=O)N([C@H](C)CO)C[C@H]1C,inconclusive: 67%
22,C[C@@H]1CN([C@H](C)CO)S(=O)(=O)c2ccc(C#CC3CCCC3)cc2O[C@H]1CN(C)Cc1cncnc1,inactive: 17.9%
23,CCCc1ccc(C(=O)NNc2cccc(C)c2)cc1,inactive: -31.9%

row,Compound,inhibition
1,O=C(N/N=C\c1c(O)ccc2ccccc12)c1ccc(O)cc1,inconclusive: 60%
2,C[C@H](CO)N1C[C@H](C)[C@@H](CN(C)Cc2ccc(C(F)(F)F)cc2)OCCCC[C@H](C)Oc2ccc(NC(=O)NC3CCCCC3)cc2C1=O,inconclusive: 61.1%
3,C[C@H](CO)N1C[C@H](C)[C@@H](CN(C)C(=O)Nc2ccc(C(F)(F)F)cc2)OCCCC[C@H](C)Oc2ccc(NS(=O)(=O)c3ccc(F)cc3)cc2C1=O,inconclusive: 60.1%
4,C[C@@H]1CCCCO[C@H](CN(C)S(=O)(=O)c2ccc(F)cc2)[C@@H](C)CN([C@@H](C)CO)C(=O)c2cc(NS(=O)(=O)c3ccc(Cl)cc3)ccc2O1,inconclusive: 61.1%
5,CN(C)CCNc1cccc2sc3ccc(O)cc3c(=O)c12,inactive: 0.453%
6,CCOC(=O)c1cc(-c2ccncc2)nc2c1c(C)nn2-c1ccccn1,inactive: -4.31%
7,Cc1cccnc1NC(=O)c1ccc(S(=O)(=O)NCc2ccco2)cc1,inactive: 14.5%
8,Oc1ccc(C[C@H]2CNC(=S)N2CC2CCCN2C[C@H](Cc2ccc(O)cc2)N2C[C@H](Cc3ccccc3)N(CCc3ccccc3)C2=S)cc1 (stereo partly drawn),inconclusive: 65.2%
9,C[C@@H]1CN([C@H](C)CO)C(=O)c2cc(NC(=O)NC3CCCCC3)ccc2O[C@@H](C)CCCCO[C@@H]1CN(C)Cc1ccc(Cl)c(Cl)c1,active: 70.9%
10,Cc1cc(C)n(-c2ccc(C(=O)NCC(c3ccco3)N3CCCC3)cc2)n1 (stereo not drawn),inconclusive: 61.6%
11,Cc1ccc(C)c(-n2nnnc2Sc2nnnn2-c2ccccc2)c1,inconclusive: 62.6%
12,CCCCC(=O)NC(c1cccs1)c1cc(Cl)c2cccnc2c1O (stereo not drawn),inconclusive: 61.7%
13,C[C@@H]1CN([C@H](C)CO)C(=O)c2cc(N(C)C)ccc2O[C@@H](C)CCCCO[C@@H]1CN(C)C(=O)Nc1ccc(C(F)(F)F)cc1,inconclusive: 62.9%
14,CCCCCCCNC(=O)C1(CC2CC(c3cccc(Br)c3)=NO2)CCNCC1 (stereo not drawn),active: 80.3%
15,C[C@H]1CN([C@@H](C)CO)C(=O)Cc2cc(NS(=O)(=O)c3ccccc3)ccc2O[C@@H]1CN(C)Cc1ccc(Cl)c(Cl)c1,inconclusive: 60.1%
16,CCCNC(=O)N1[C@H](CNC(=O)CC)[C@H](c2ccc(C3=CCCC3)cc2)[C@@H]1CO,inactive: 6.25%
17,CN(C)c1ncnc2c1nnn2C1OC(CO)C(O)C1O (stereo not drawn),active: 91.1%
18,O=C(C[C@@H]1C[C@H]2c3cc(NC(=O)Nc4ccc(C(F)(F)F)cc4)ccc3O[C@H]2[C@H](CO)O1)NCc1cc(F)ccc1F,inconclusive: 61.6%
19,C[C@@H]1CN([C@H](C)CO)C(=O)c2cccc(NC(=O)Nc3cccc4ccccc34)c2O[C@@H]1CN(C)S(=O)(=O)c1ccc(Cl)cc1,active: 84.3%
20,O=C1Nc2cccnc2N(C(=O)CCl)c2ccccc21,inconclusive: 62.4%
21,O=C(O)/C=C/c1cccc(OCc2ccccc2)c1,inconclusive: 66%
22,Cc1ccccc1NC(=O)COC(=O)c1ccc(S(C)(=O)=O)c([N+](=O)[O-])c1,inconclusive: 71.5%
23,CC(C)NC(=O)N1[C@@H](CO)[C@@H](c2ccccc2)C12CN(C(=O)CN(C)C)C2,inactive: -4.15%

row,Compound,inhibition
1,CC(C)NC(=O)N(C)C[C@H]1OCCCC[C@@H](C)Oc2ccc(NC(=O)Nc3ccc(C(F)(F)F)cc3)cc2C(=O)N([C@H](C)CO)C[C@@H]1C,inconclusive: 61.9%
2,NC(=O)[C@H]1CC2(CC(c3cccc(NC(=O)CC(c4ccccc4)c4ccccc4)c3)=NO2)CN1C(=O)c1ccccc1C(=O)c1ccccc1 (stereo partly drawn),inconclusive: 61.2%
3,C#CCN(C[C@H]1[C@H](OC(=O)Nc2cccs2)[C@H](OC(=O)Nc2cccs2)CN(C(=O)OC(C)C)N1C(=O)OC(C)C)S(=O)(=O)c1ccc(C)cc1,inconclusive: 65%
4,CCC[N+]1(CC#CCC(c2ccccc2)c2ccccc2)CCCCC1,inconclusive: 61.3%
5,CC(=O)c1cccc(-c2ccnc3c2CC(C(=O)NCc2cccs2)O3)c1 (stereo not drawn),inconclusive: 61.6%
6,Cc1ccc(C)c2sc(N3CCN(C(=O)c4ccc([N+](=O)[O-])o4)CC3)nc12,inactive: 14.5%
7,C=CCn1c(C)cc(C2=NNC(=Nc3ccc(C)cc3)SC2)c1C,inactive: 14.8%
8,COc1cccc(S(=O)(=O)N2CC[C@@H]3[C@@H](CO)Nc4ccc(C#Cc5ccccc5)cc4[C@@H]32)c1,inactive: 8.19%
9,CCOc1cc(NC(=O)c2ccco2)c(OCC)cc1NC(=O)c1cc(OC)c(OC)c(OC)c1,inactive: 39.3%
10,O=C(Cc1ccccn1)NCC[C@@H]1CC[C@H](NC(=O)c2ccccc2F)[C@H](CO)O1,inactive: -13.3%
11,C[C@@H]1CN([C@H](C)CO)C(=O)c2cccc(NC(=O)c3nc4ccccc4s3)c2O[C@@H]1CN(C)C,inactive: -13.2%
12,Cc1ccccc1-c1ccc(C2[C@@H]3CN(C(=O)Nc4ccc(F)cc4)C[C@H]2N3)cc1 (stereo partly drawn),inconclusive: 60.7%
13,CC[n+]1ccc(/C=C/c2c[nH]c3ccccc23)cc1,active: 75.5%
14,CC(C)Cn1c([N+](=O)[O-])nc2c1c(=O)[nH]c(=O)n2C,active: 78.2%
15,NS(=O)(=O)c1ccc(CCNC(=O)c2ccc(C#CC3(O)CCCCC3)cc2)cc1,inconclusive: 64.6%
16,CC1=[N+](C)c2ccc3ccccc3c2C1(C)C,inconclusive: 61.3%
17,C=CC(=O)Nc1cccc(Oc2cc(Cl)nc3[nH]ccc23)c1,inconclusive: 62.4%
18,Cn1nc(C(C)(C)C)c([N+](=O)[O-])c1C(=O)NCCO,inconclusive: 62.2%
19,COc1ccc(Nc2nnc(-c3ccc(C)cc3)c3ccccc23)cc1C(=O)N1CCCCC1,inconclusive: 64.2%
20,C[C@H]1CN([C@@H](C)CO)C(=O)Cc2cc(NC(=O)Nc3ccc(C(F)(F)F)cc3)ccc2O[C@H]1CN(C)Cc1ccccc1,inconclusive: 64.7%
21,O=C(NCc1ccco1)c1cc(S(=O)(=O)N2CCCC2)ccc1Cl,inactive: -24.3%
22,O=C1CN(Cc2ccccc2)C[C@H]2[C@@H](c3ccc(-c4ccccc4F)cc3)[C@@H](CO)N12,inactive: -21.3%
